PubChem BioAssay (NCATS)
This list was built around the results that the source calls inconclusive (neither active nor inactive); the mix of calls is not that of the screen. For part of these data: Potencies of inconclusive entries are left out as doubtful fits. Activity calls are given as the source filed them. Calls follow the shape of the dose curve; as a rule, active = well fitted curve in the direction sought with a large enough effect; inconclusive = small, poorly fitted or top-dose-only effect, or another doubt; inactive = no such curve, though single readings can be large; an effect the other way counts as inactive or inconclusive.

What was measured:
[1] = biological target: N-terminal Xaa-Pro-Lys N-methyltransferase 1 (Homo sapiens) (UniProt Q9BV86); assay: qHTS Assay for Inhibitors of N-terminal methyltransferase 1 (NTMT1): LOPAC validation of the NTMT1 SAHH-coupled ThioGlo3 Assay (AID 1347143);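 also: SAH from peptide methylation measured as thiol fluorescence via SAHH coupling and ThioGlo3; nearly all actives have a fitted effect of over 70% in size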; also: potency is read from the fitted curve at half-maximal effect
Sequence of UniProt Q9BV86 (Q9BV86 whole entry, looked up): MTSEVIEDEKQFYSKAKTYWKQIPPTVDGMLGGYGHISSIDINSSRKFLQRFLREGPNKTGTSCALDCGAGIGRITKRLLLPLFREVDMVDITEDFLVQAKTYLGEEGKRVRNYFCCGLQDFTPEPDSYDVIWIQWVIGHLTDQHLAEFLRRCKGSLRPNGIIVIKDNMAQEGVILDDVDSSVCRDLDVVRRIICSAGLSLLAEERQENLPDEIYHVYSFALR
In short: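 NTMT1 125nM + cpds (various conc.), 1 min RT; add SAM 100uM/SAHH 10uM/ThioGlo3 15uM (addition mix). SAHH-coupled thiol detection, Ex340/Em450, t0 and 30 min RT; signal normalized to background. LOPAC 1280-cpd pilot.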

[2] = qHTS of pediatric cancer cell lines to identify multiple opportunities for drug repurposing: Confirmatory screen for Rh18 cells (AID 1347125); settings: Rh18 rhabdomyosarcoma cells, viability; activity change, negative = cytotoxic: at 45.9 µM (top of the series); also: nearly all actives have a fitted effect of over 55% in size; also: potency is read from the fitted curve at half-maximal effect
In short: (§1)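 Cells (500-1,000/well) rested 5 h, then received compounds for 48 h; metabolically active cells were measured by CellTiter-Glo luminescence. Final concentrations spanned up to 46 µM (MIPE, 11-point) or 0.59 nM-46 µM (NPC, 8-point) in primary screens, 11-point in follow-ups.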

[3] = qHTS of pediatric cancer cell lines to identify multiple opportunities for drug repurposing: Confirmatory screen for Rh30 cells (AID 1347126); also: nearly all actives have a fitted effect of over 55% in size; also: potency is read from the fitted curve at half-maximal effect
In short: as §1

[4] = qHTS of pediatric cancer cell lines to identify multiple opportunities for drug repurposing: Confirmatory screen for OHS-50 cells (AID 1347128);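 also: compound exposure lasted 48 h at 37 degrees C; nearly all actives have a fitted effect of over 55% in size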; also: potency is read from the fitted curve at half-maximal effect
In short: as §1

[5] = qHTS of pediatric cancer cell lines to identify multiple opportunities for drug repurposing: Confirmatory screen for Saos-2 cells (AID 1347127); also: nearly all actives have a fitted effect of over 60% in size; also: potency is read from the fitted curve at half-maximal effect
In short: as §1

[6] = qHTS of pediatric cancer cell lines to identify multiple opportunities for drug repurposing: Confirmatory screen for RD cells (AID 1347124); settings: RD rhabdomyosarcoma cell viability; activity change, negative = cytotoxic: at 45.9 µM (top of the series);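 also: cells exposed to compound for 48 h before viability readout; nearly all actives have a fitted effect of over 65% in size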; also: potency is read from the fitted curve at half-maximal effect
In short: as §1

[7] = qHTS of pediatric cancer cell lines to identify multiple opportunities for drug repurposing: Confirmatory screen for SK-N-SH cells (AID 1347129);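 also: cells exposed to compound for 48 h before viability read; nearly all actives have a fitted effect of over 60% in size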
In short: as §1
Tags tell the direction and shape of the fitted curve.

## CN(C)CCCC1(c2ccc(F)cc2)OCc2cc(C#N)ccc21 (stereo not given)
[1]
  Potency: inconclusive [inhibitor, partial curve]

## NC(=NCc1ccccc1)NC(=O)c1nc(Cl)c(N)nc1N
[1]
  Potency: active: 56.2 µM

## Clc1ccc2c(N3CCN(CCCN4CCN(c5ccnc6cc(Cl)ccc56)CC4)CC3)ccnc2c1
[1]
  Potency: active: 50.1 µM

## CC(=O)NC[C@H]1CN(c2ccc(N3CCOCC3)c(F)c2)C(=O)O1
[1]
  Potency: inactive

## Nc1c2c(nc3ccccc13)CCCC2
[1]
  Potency: inconclusive [inhibitor, single point]

## O=c1c(O)c(-c2ccc(O)cc2O)oc2cc(O)cc(O)c12
[1]
  Potency: inconclusive [inhibitor, partial curve]

## O=C(O)CCc1ccc(NCc2cccc(Oc3ccccc3)c2)cc1
[1]
  Potency: inconclusive [inhibitor, partial curve]

## CCCCC(=O)O[C@]1(C(=O)CO)[C@@H](C)C[C@H]2[C@@H]3CCC4=CC(=O)C=C[C@]4(C)[C@@]3(F)[C@@H](O)C[C@@]21C
[2]
  Potency: inactive
[3]
  Potency: inconclusive [rising, full curve]
[4]
  Potency: inactive

## CN(C)c1nc(N(C)C)nc(N(C)C)n1
[1]
  Potency: inactive

## CCCc1nn(C)c2c(=O)[nH]c(-c3cc(S(=O)(=O)N4CCN(C)CC4)ccc3OCC)nc12
[1]
  Potency: inconclusive [inhibitor, full curve, poor fit]

## COC(=O)[C@H](c1ccccc1Cl)N1CCc2sccc2C1
[3]
  Potency: inactive
[5]
  Potency: inactive
[4]
  Potency: inactive

## CCc1cccc2c3c([nH]c12)C(CC)(CC(=O)O)OCC3 (stereo not given)
[1]
  Potency: inactive

## CC1CNc2c(cccc2S(=O)(=O)N[C@@H](CCCN=C(N)N)C(=O)N2CC[C@@H](C)C[C@@H]2C(=O)O)C1 (stereo not given in full)
[6]
  Potency: inconclusive [cytotoxic, single point]
[3]
  Potency: active: 20.8 µM
[5]
  Potency: inconclusive [rising, partial curve, poor fit]
[4]
  Potency: inactive

## CN1CCN2c3ccccc3Cc3ccccc3C2C1 (stereo not given)
[1]
  Potency: inconclusive [inhibitor, partial curve]

## COc1ccc2[nH]cc(CCNC(C)=O)c2c1
[1]
  Potency: inconclusive [inhibitor, partial curve, poor fit]

## NC(=O)c1cnccn1
[1]
  Potency: inactive

## COc1ccc(CCN(C)CCCC(C#N)(c2ccc(OC)c(OC)c2)C(C)C)cc1OC (stereo not given)
[1]
  Potency: inactive

## CCOC(=O)C(C)Oc1cccc2c(=O)n(CC(=O)Nc3ccc4c(c3)OCCO4)ccc12 (stereo not given)
[1]
  Potency: inconclusive [inhibitor, partial curve]

## CCCS(=O)(=O)Nc1ccc(F)c(C(=O)c2c[nH]c3ncc(-c4ccc(Cl)cc4)cc23)c1F
[2]
  Potency: inconclusive [cytotoxic, partial curve]
[3]
  Potency: inconclusive [cytotoxic, partial curve]
[5]
  Potency: inconclusive [cytotoxic, single point]
[4]
  Potency: inconclusive [cytotoxic, full curve]

## CO[C@H]1/C=C\O[C@@]2(C)Oc3c(C)c(O)c4c(O)c(c(C=NN5CCN(C6CCCC6)CC5)c(O)c4c3C2=O)NC(=O)C(C)=CC=C[C@H](C)[C@H](O)[C@@H](C)[C@@H](O)[C@@H](C)[C@H](OC(C)=O)[C@H]1C
[2]
  Potency: inactive
[3]
  Potency: inconclusive [cytotoxic, single point]
[4]
  Potency: inconclusive [cytotoxic, single point]
[7]
  Potency: inactive

## C=CCn1c(=O)c2cnc(Nc3ccc(N4CCN(C)CC4)cc3)nc2n1-c1cccc(C(C)(C)O)n1
[2]
  Potency: inconclusive [cytotoxic, full curve, poor fit]
[3]
  Potency: inconclusive [cytotoxic, full curve]

## Cc1ccc(S(=O)(=O)N[C@@H](Cc2ccccc2)C(=O)CCl)cc1
[1]
  Potency: inconclusive [inhibitor, partial curve]

## NC(N)=NC(=O)c1nc(Cl)c(N)nc1N
[6]
  Potency: inactive
[3]
  Potency: inconclusive [cytotoxic, single point]
[5]
  Potency: inconclusive [rising, partial curve]
[1]
  Potency: active: 50.1 µM

## Cc1ccc(-c2ncn(-c3ccc(Nc4nccc(-c5cccc(N6CCOCC6)c5)n4)cc3)n2)cn1
[2]
  Potency: active: 0.107 µM
[3]
  Potency: active: 0.12 µM
[5]
  Potency: active: 0.107 µM

## CC(C)CC(=O)Nc1n[nH]c2c1CN(C(=O)C1CCN(C)CC1)C2(C)C
[3]
  Potency: inactive
[5]
  Potency: inconclusive [cytotoxic, full curve, poor fit]
